Measured values: the supplement of paper PMC4967469
IC50 is the fitted dose that halves viability relative to control wells, and lower means more sensitive; a fit beyond the top or the lowest dose is shown as a bound at that dose. The AUC spans the tested range (256-fold, ending at the top dose) of the same fit; it is 1 without any effect and falls as sensitivity rises. For part of these data: Any top dose called inferred comes from the curve model; the source does not state it. For part of these data: An entry number marks a drug with two screens in the source, which often give different values.

Legend:
Test in all cases: Viability of human cancer cell lines after 72 h of drug (GDSC screen)
MP470 = compound: S=C(NCc1ccc2c(c1)OCO2)N1CCN(c2ncnc3c2oc2ccccc23)CC1 [MP470]; settings: top dose 20 µM; top dose inferred
Method: (§1)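 Human cancer cell lines in 384-well plates, medium with 10% serum, drug for 72 h over a 256-fold dose range (nine 2-fold or five 4-fold steps up to the top dose). Adherent lines were fixed and stained with the nucleic acid dye Syto60, suspension lines read with resazurin; signal relative to control wells, capped at 0 and 100%. One two-parameter sigmoid per drug and line, fitted in a mixed model over all curves with the slope shared within a line.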

Gemcitabine = compound: Nc1ccn([C@@H]2O[C@H](CO)[C@@H](O)C2(F)F)c(=O)n1 [Gemcitabine]; settings: top dose 1.024 µM
Method: as §1

AUY922 = compound: CCNC(=O)c1noc(-c2cc(C(C)C)c(O)cc2O)c1-c1ccc(CN2CCOCC2)cc1 [AUY922]; settings: top dose 0.256 µM; top dose inferred
Method: as §1

LFM-A13 = compound: C/C(O)=C(\C#N)C(=O)Nc1cc(Br)ccc1Br [LFM-A13]; settings: top dose 16 µM; top dose inferred
Method: as §1

T0901317 = compound: O=S(=O)(c1ccccc1)N(CC(F)(F)F)c1ccc(C(O)(C(F)(F)F)C(F)(F)F)cc1 [T0901317]; settings: top dose 10.24 µM; top dose inferred
Method: as §1

TW-37 = compound: CC(C)c1ccccc1Cc1cc(C(=O)Nc2ccc(S(=O)(=O)c3ccccc3C(C)(C)C)cc2)c(O)c(O)c1O [TW-37]; settings: top dose 5 µM
Method: as §1

Bicalutamide = compound: CC(O)(CS(=O)(=O)c1ccc(F)cc1)C(=O)Nc1ccc(C#N)c(C(F)(F)F)c1 [Bicalutamide]; settings: top dose inferred
Method: as §1

KIN001-270 = compound: Cc1ccc(Nc2cc(-c3cccc(N4C(=O)c5ccccc5C4=O)c3)ncn2)cc1NS(C)(=O)=O [KIN001-270]; settings: top dose 20 µM; top dose inferred
Method: as §1

[1] = top dose 1.024 µM, screen: GDSC drug entry 150
[2] = top dose 10 µM, screen: GDSC drug entry 1502

| Cell Line | AUC (MP470) | IC50 (MP470) [nM] | AUC (Gemcitabine) | IC50 (Gemcitabine) [nM] | AUC (AUY922) | IC50 (AUY922) [nM] | AUC (LFM-A13) | IC50 (LFM-A13) [nM] | AUC (T0901317) | IC50 (T0901317) [nM] | AUC (TW-37) | IC50 (TW-37) [nM] | AUC (Bicalutamide; [1]) | IC50 (Bicalutamide; [1]) [nM] | AUC (Bicalutamide; [2]) | IC50 (Bicalutamide; [2]) [nM] | AUC (KIN001-270) | IC50 (KIN001-270) [nM] |
| --- | --- | --- | --- | --- | --- | --- | --- | --- | --- | --- | --- | --- | --- | --- | --- | --- | --- | --- |
| NCI-H2009 (lung adenocarcinoma, adherent) | 0.896 | > 20000 | 0.161 | 5.41 | 0.473 | 13.5 | 0.978 | > 16000 | 0.98 | > 10200 | 0.533 | 386 | 0.987 | > 1020 | 0.982 | > 10000 | 0.981 | > 20000 |
| NCI-H2030 (lung adenocarcinoma, adherent) | 0.969 | > 20000 | 0.408 | 34.5 | 0.427 | 9.84 | 0.947 | > 16000 | 0.974 | > 10200 | 0.688 | 1140 | 0.983 | > 1020 | 0.979 | > 10000 | 0.96 | > 20000 |
| NCI-H2085 (lung adenocarcinoma, adherent) | 0.982 | > 20000 | 0.751 | 363 | 0.546 | 21.5 | 0.963 | > 16000 | 0.979 | > 10200 | 0.845 | 4060 | 0.986 | > 1020 | 0.984 | > 10000 | 0.952 | > 20000 |
| NCI-H2170 (lung squamous cell carcinoma, adherent) | 0.94 | > 20000 | 0.198 | 7.68 | 0.725 | 72.2 | 0.971 | > 16000 | 0.983 | > 10200 | 0.67 | 954 | 0.987 | > 1020 | 0.982 | > 10000 | 0.982 | > 20000 |
| NCI-H2342 (lung adenocarcinoma, adherent) | 0.74 | 6610 | 0.188 | 6.62 | 0.454 | 11.9 | 0.972 | > 16000 | 0.985 | > 10200 | 0.435 | 204 | 0.984 | > 1020 | 0.975 | > 10000 | 0.985 | > 20000 |
| NCI-H2405 (lung adenocarcinoma, adherent) | 0.959 | > 20000 | 0.343 | 22.3 | 0.485 | 14.5 | 0.97 | > 16000 | 0.985 | > 10200 | 0.603 | 618 | 0.984 | > 1020 | 0.969 | > 10000 | 0.98 | > 20000 |
| NCI-H3122 (lung adenocarcinoma, adherent) | 0.639 | 3060 | 0.139 | 4.5 | 0.314 | 4.76 | 0.952 | > 16000 | 0.984 | > 10200 | 0.604 | 608 | 0.987 | > 1020 | 0.983 | > 10000 | 0.978 | > 20000 |
